Max response and AC50 data for seven compounds are collected here from PubChem BioAssay (NCATS).

Each structure is given as a SMILES string. This is one part of the list. The main result of the screen is listed elsewhere. These columns were measured beside it and carry no call. The list favours compounds with an active or inconclusive main result. The note in brackets gives the kind of curve behind each potency; many fits are weak.

This assay is described as follows: qHTS Assay for Lipid Storage Modulators (AID 1519). The note with it: Drosophila S3 cells, BODIPY lipid droplet/cell ratio, laser cytometry, cells loaded with oleic acid. The gist of the method: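 Cells seeded at 5,000 per well were treated with compounds over a concentration series and loaded with oleic acid (400 uM, as added). Lipid droplet fluorescence (488 nm excitation, 500-530 nm channel) was read by laser-scanning cytometry and normalized to 20 uM Triacsin C.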

The mark [1] stands for this setting: measured here: cell count channel max response.
[2] abbreviates: measured here: lipid channel max response.
[3] abbreviates: measured here: lipid (BODIPY) channel AC50.
Tags give direction and shape of the fitted curve.

As to `CN1C[C@H](CNC(=O)OCc2ccccc2)C[C@H]2c3cccc4c3c(cn4C)C[C@@H]21`, the max response under setting [1] was found to be 74.6% and the max response under setting [2] was 96.1%.

For the compound `CC12CCC3C(CCC4=C(O)C(=O)CCC43C)C1CCC2=O` (configuration not stated), the max response amounted to 39.7% under setting [1] and 38% under setting [2].

Turning to `C[C@]12CC[C@H]3[C@@H](CCC4C[C@H](O)CC[C@@]43C)[C@@H]1CC[C@@H]2O` (some centres not stated), the max response is, setting by setting: under setting [1], 49.8%; under setting [2], 50%.

Take `CN(C(=O)Cc1ccc(Cl)c(Cl)c1)[C@@H](CN1CCCC1)c1cccc(OCC(=O)O)c1`: the max response runs as follows: under setting [1], 23.7%; under setting [2], 30%.

As for `CC1CC[C@@]2(NC1)OC1CC3C4CC[C@@H]5CC(O)CC[C@@]5(C)C4CC[C@]3(C)C1C2C` (some centres not stated), the max response was 17.9% under setting [1] and 31.8% under setting [2]. Further, under setting [3], the AC50 is 39.8 µM [rising, single point].

`CS(=O)(=O)Nc1ccc(Cc2noc(-c3ccc4[nH]cc(CCN)c4c3)n2)cc1`: the max response came to 39.4% under setting [1] and 67.2% under setting [2]. For the same compound, the AC50 (measured here: cell number channel AC50) is 17.8 µM [rising, single point].

Consider `CCC1C(=O)OC[C@H]1Cc1cncn1C` (some centres not stated), for which the max response was 20.6% under setting [1] and 40.1% under setting [2]. Further, the AC50 under setting [3] is 11.2 µM [rising, partial curve, poor fit].

As a reminder, the AC50 is the concentration at which the activity in the assay is half-maximal.
